Consider 22 compounds from ChEMBL document CHEMBL5606460, “ASAP - DENV-2 NS2B-NS3 protease fluorescence single point” (2024).

Out of some 2,000 compounds screened, about 110 (5.5%) showed an effect of 50% or more. The list shows a part of the results.

For orientation: inhibition means the change of the read-out against control, counted positive when it falls.

This assay addresses Genome polyprotein (dengue virus type 2) (UniProt P29990).
Where [1] appears, read: Thailand/16681/1984, Concentration 25.0 uM, Number of replicates 1.0.

Take `CNC(=O)c1cc(Cl)ncc1NS(=O)(=O)c1ccc(Oc2ccccc2Cl)cc1`: the inhibition runs as follows: (Thailand/16681/1984, Concentration 49.5 uM, Number of replicates 2.0, Standard deviation 0.003826975991637689 %) -0.629%; (Thailand/16681/1984, Concentration 99.01 uM, Number of replicates 2.0, Standard deviation 0.08610681229787821 %) -0.288%; (Thailand/16681/1984, Concentration 198.0 uM, Number of replicates 2.0, Standard deviation 0.5032468582115982 %) 12.6%.

`C[C@H]1CCCCN1CCCNC(=O)C1CCN(c2ccc(C=O)cc2)CC1`: under setting [1], the inhibition worked out at 10.3%.

With `Cn1nc(-c2ccccc2)cc1CN1CCC(c2c[nH]c3cccnc23)CC1`, the inhibition by setting is: (Thailand/16681/1984, Concentration 49.5 uM, Number of replicates 2.0, Standard deviation 2.7674524360685093 %) -4.34%; (Thailand/16681/1984, Concentration 99.01 uM, Number of replicates 2.0, Standard deviation 2.3595903445048867 %) -0.982%; (Thailand/16681/1984, Concentration 198.0 uM, Number of replicates 2.0, Standard deviation 2.863984071148027 %) 1.79%.

As for `NS(=O)(=O)c1cscc1CNCc1nnc2ccccn12`, the inhibition is -5.3% (Thailand/16681/1984, Concentration 49.5 uM, Number of replicates 2.0, Standard deviation 0.7378652140550099 %); -3.74% (Thailand/16681/1984, Concentration 99.01 uM, Number of replicates 2.0, Standard deviation 2.175818747495139 %); -3.71% (Thailand/16681/1984, Concentration 198.0 uM, Number of replicates 2.0, Standard deviation 3.281635221356926 %).

On to `Cc1cc(CO)c2cccc(CC(=O)N3CC4(CCCOC4)C3)c2n1`, for which the inhibition reads like this: (Thailand/16681/1984, Concentration 49.95 uM, Number of replicates 2.0, Standard deviation 0.772673116128399 %) -6.59%; (Thailand/16681/1984, Concentration 99.9 uM, Number of replicates 2.0, Standard deviation 1.1105448445025274 %) -6.27%.

In the case of `CCOc1ccccc1CNC(=O)C1CCN(c2ccc(C=O)cc2)CC1`, the inhibition under setting [1] stood at 12.1%.

For `Cn1cc(NC(=O)c2ccccc2C(F)(F)F)c(-c2cccc(CO)c2)n1`, the inhibition by setting is: (Thailand/16681/1984, Concentration 49.5 uM, Number of replicates 2.0, Standard deviation 0.6307028056186048 %) -4.03%; (Thailand/16681/1984, Concentration 99.01 uM, Number of replicates 2.0, Standard deviation 3.6654170060517894 %) -4.22%; (Thailand/16681/1984, Concentration 198.0 uM, Number of replicates 2.0, Standard deviation 3.1544802024482874 %) -2.91%.

Take `COc1cccc([C@H](C)NC(=O)C2CCN(c3ccc(C=O)cc3)CC2)c1`: the inhibition under setting [1] worked out at 12.7%.

As for `C[C@@H](CNc1cc(Cl)cc(C(=O)NC(C)(C)CO)c1)c1ccc(F)cc1`, the inhibition is -4.87% (Thailand/16681/1984, Concentration 49.5 uM, Number of replicates 2.0, Standard deviation 1.7964155145983758 %) and -8.66% (Thailand/16681/1984, Concentration 99.01 uM, Number of replicates 2.0, Standard deviation 2.367041527999976 %).

In the case of `O=Cc1ccc(N2CCC(C(=O)NCCc3ccc(OC(F)(F)F)cc3)CC2)cc1`, under setting [1], the inhibition is 14.5%.

Take `Cc1ncc(CO)c(CNC(=O)C2CCN(c3ccc(C=O)cc3)CC2)c1O`: the inhibition under setting [1] was 9.53%.

Take `O=Cc1ccc(N2CCC(C(=O)N3Cc4ccccc4C[C@@H]3CO)CC2)cc1`: under setting [1], the inhibition is 13.8%.

For the compound `Cc1cn2nnc(C(=O)N3CCC[C@H](c4nc(=O)[nH][nH]4)C3)c2c(=O)[nH]1`, the inhibition reads like this: (Thailand/16681/1984, Concentration 49.5 uM, Number of replicates 2.0, Standard deviation 1.1306810071407891 %) -1.83%; (Thailand/16681/1984, Concentration 99.01 uM, Number of replicates 2.0, Standard deviation 1.1436614778388714 %) -1.38%; (Thailand/16681/1984, Concentration 198.0 uM, Number of replicates 2.0, Standard deviation 0.31245549284811885 %) -1.83%.

For `CNC(=O)C[C@H]1CCCN1S(=O)(=O)c1ccc(Oc2ccccc2Cl)cc1`, the inhibition reads like this: (Thailand/16681/1984, Concentration 49.5 uM, Number of replicates 2.0, Standard deviation 0.32757728686835763 %) -0.145%; (Thailand/16681/1984, Concentration 99.01 uM, Number of replicates 2.0, Standard deviation 1.5700018436077314 %) 1.46%; (Thailand/16681/1984, Concentration 198.0 uM, Number of replicates 2.0, Standard deviation 0.26515981673573996 %) 3.55%.

For `N[C@H]1CCN(c2cccc(CNC(=O)c3ccc4[nH]c(=O)[nH]c4c3F)n2)C1`, the inhibition is 0.031% (Thailand/16681/1984, Concentration 49.5 uM, Number of replicates 2.0, Standard deviation 0.5004190364841841 %); 0.034% (Thailand/16681/1984, Concentration 99.01 uM, Number of replicates 2.0, Standard deviation 0.5874940461860545 %); 3.2% (Thailand/16681/1984, Concentration 198.0 uM, Number of replicates 2.0, Standard deviation 2.120224019736177 %).

In the case of `CN(C)c1ccc(/C=C/C(=O)C(=O)N2CCOCC2)cc1`, the inhibition reads like this: (Thailand/16681/1984, Concentration 49.5 uM, Number of replicates 2.0, Standard deviation 1.4993650320557768 %) 37.9%; (Thailand/16681/1984, Concentration 99.01 uM, Number of replicates 2.0, Standard deviation 1.3662996762867583 %) 59.5%; (Thailand/16681/1984, Concentration 198.0 uM, Number of replicates 2.0, Standard deviation 0.7538742729933879 %) 78.8%.

Consider `Cc1nc(Cl)c(NC(=O)C2CCN(c3ccc(C=O)cc3)CC2)c(Cl)n1`, for which the inhibition under setting [1] is 12.8%.

With `COCCCN1CCN(C(=O)C2CCN(c3ccc(C=O)cc3)CC2)CC1`, under setting [1], the inhibition worked out at 11.8%.

In the case of `COc1cc(Cc2cccc3[nH]nnc23)nc(N2CCNCC2)n1`, the inhibition by setting is: (Thailand/16681/1984, Concentration 49.5 uM, Number of replicates 2.0, Standard deviation 0.08725206861246473 %) 2.28%; (Thailand/16681/1984, Concentration 99.01 uM, Number of replicates 2.0, Standard deviation 0.07153584597754044 %) 3.03%; (Thailand/16681/1984, Concentration 198.0 uM, Number of replicates 2.0, Standard deviation 0.0010836797689121073 %) 5.35%.

Turning to `CNC(=O)c1ccncc1NS(=O)(=O)c1ccc(Oc2ccccc2Cl)cc1`, the inhibition is -2.48% (Thailand/16681/1984, Concentration 49.5 uM, Number of replicates 2.0, Standard deviation 3.023334340601001 %); -0.672% (Thailand/16681/1984, Concentration 99.01 uM, Number of replicates 2.0, Standard deviation 3.20078374174672 %); 2.95% (Thailand/16681/1984, Concentration 198.0 uM, Number of replicates 2.0, Standard deviation 2.339843576600017 %).

Consider `O=Cc1ccc(N2CCC(C(=O)N3CCCC[C@H]3C(F)(F)F)CC2)cc1`, for which the inhibition under setting [1] was found to be 16.8%.

Take `Clc1cc(Cl)c2cccnc2c1`: the inhibition reads like this: (Thailand/16681/1984, Concentration 49.95 uM, Number of replicates 2.0, Standard deviation 5.517273159530972 %) -6.96%; (Thailand/16681/1984, Concentration 99.9 uM, Number of replicates 2.0, Standard deviation 6.335774061331812 %) -7.46%.
